# B1: scFvEGFR-MHD2-scFvHER2 (bispecific antibody)
# chain: DAAQPAMAEVQLVESGGGLVQPGGSLRLSCAASGFSLTNYGVHWVRQAPGKGLEWLGVIWSGGNTDYNTPFTSRFTISRDNSKNTLYLQMNSLRAEDTAVYYCARALTYYDYEFAYWGQGTTVTVSSGGGGSGGGGSGGGGSDIQLTQSPSFLSASVGDRVTITCRASQSIGTNIHWYQQKPGKAPKLLIKYASESISGVPSRFSGSGSGTEFTLTISSLQPEDFATYYCQQNNNWPTTFGAGTKLEIKRGSLGGSGGAELPPKVSVFVPPRDGFFGNPRKSKLICQATGFSPRQIQVSWLREGKQVGSGVTTDQVQAEAKESGPTTYKVTSTLTIKESDWLGQSMFTCRVDHRGLTFQQNASSMCVPDGGGSGGGTGSGG[about 120 residues not given here]GGGGSGGGGSGGGTG[about 100 residues not given here]RAAAHHHHHH
# notes: Tetravalent, bispecific homodimer, His6; also called scFvA-MHD2-scFvB; bispecific MHD2 fusion protein
# Biological target: T1, EGFR-Fc fusion protein (UniProt P00533 fragment, limits assumed)
# T1 construct: extracellular domain; also called Fc fusion protein of the extracellular region of EGFR; immobilized EGFR; not shown: Fc part
# Test: ELISA on immobilized receptor-Fc
binder,measurement,value
B1,binding result,binds
